Laboratory results reported in PubChem BioAssay AID488969 (Vanderbilt High Throughput Screening Facility, 2010).
In all, about 110,000 compounds were measured (“z-score”: median about -0.1, highest 2% from about 2 on). Some of the results follow. Calls of active or inactive are those of the source.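 The calls were made as follows: active = z-score in the third read window above 3 or below -3; inactive = the rest.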

target: Metabotropic glutamate receptor 8 (Rattus norvegicus) (UniProt P70579); experiment: mGluR8 Gi/Go-coupled signaling modulation – cell-based, rat, thallium flux, HTS, primary screen (AID 488969); conditions: HEK293 rat mGluR8, GIRK (G protein-gated inwardly rectifying potassium channel) thallium flux, FluoZin2; at 10 µM; stronger effect = higher value; submaximal glutamate (EC20) added with thallium
Chain of UniProt P70579 (P70579 whole entry, looked up): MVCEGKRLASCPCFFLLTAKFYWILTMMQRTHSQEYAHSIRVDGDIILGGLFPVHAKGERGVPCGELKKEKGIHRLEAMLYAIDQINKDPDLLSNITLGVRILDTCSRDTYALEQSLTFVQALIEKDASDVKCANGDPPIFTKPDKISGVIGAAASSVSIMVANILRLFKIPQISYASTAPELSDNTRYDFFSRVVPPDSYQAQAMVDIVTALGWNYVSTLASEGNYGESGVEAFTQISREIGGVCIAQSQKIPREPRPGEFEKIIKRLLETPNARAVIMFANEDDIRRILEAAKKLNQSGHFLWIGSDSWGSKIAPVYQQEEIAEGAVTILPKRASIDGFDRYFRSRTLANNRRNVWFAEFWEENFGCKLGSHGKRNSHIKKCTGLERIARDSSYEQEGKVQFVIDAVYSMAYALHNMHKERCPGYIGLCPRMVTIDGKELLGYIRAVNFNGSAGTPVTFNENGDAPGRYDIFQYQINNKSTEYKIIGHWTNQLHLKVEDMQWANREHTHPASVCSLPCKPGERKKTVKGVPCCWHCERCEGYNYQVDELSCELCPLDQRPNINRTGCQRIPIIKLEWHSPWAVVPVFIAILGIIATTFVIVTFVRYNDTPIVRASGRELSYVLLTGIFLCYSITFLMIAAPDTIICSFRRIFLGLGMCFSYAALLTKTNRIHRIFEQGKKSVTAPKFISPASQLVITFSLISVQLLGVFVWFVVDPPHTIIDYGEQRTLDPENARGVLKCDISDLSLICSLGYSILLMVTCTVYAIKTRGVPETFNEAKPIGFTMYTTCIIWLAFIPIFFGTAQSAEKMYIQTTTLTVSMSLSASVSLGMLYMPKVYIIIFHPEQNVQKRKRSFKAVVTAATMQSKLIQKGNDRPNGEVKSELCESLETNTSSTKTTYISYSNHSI

| SMILES | z-score |
| --- | --- |
| O=C(N/N=C1\CCCc2ccccc21)c1ccc([N+](=O)[O-])cc1Cl | -0.814 |
| COc1ccc(NC(=O)c2cccc(OC(F)F)c2)cc1Cl | -0.169 |
| Cc1ccc(/C=C(\NC(=O)c2ccccc2)C(=O)OCc2ccccc2)cc1 | -0.446 |
| CCCNC(=O)c1ccccc1NC(=O)c1ccc(CSc2ccccc2)cc1 | 0.0178 |
| Cc1ccc(S(=O)(=O)/N=C(/c2ccc(F)cc2)N2CCCCC2)cc1 | -0.248 |
| COc1ccccc1-c1nc(C#N)c(N2CCCCCC2)o1 | -2.54 |
| COc1cc(NC(=O)C2CC2C)c(C(=O)O)cc1OC (stereo not given) | -0.191 |
| CC1CCCC(C)N1S(=O)(=O)c1ccc(S(=O)(=O)NCc2ccccc2)cc1 (stereo not given) | 0.891 |
| COC(=O)c1ccc(CSc2nnc(CNC(=O)c3ccc(OC)cc3)o2)o1 | 0.0897 |
| COc1ccc(CCNc2nc(N3CCOCC3)nc(N3CCOCC3)n2)cc1OC | 0.342 |
| CCC(C)(c1nnnn1-c1c(C)cccc1C)N(N=O)c1ccccc1Cl (stereo not given) | -0.506 |
| CC(C)(C)C1CCC(C(=O)OCC(=O)N2CCOCC2)CC1 (stereo not given) | 0.199 |
| N#Cc1c(/N=C/C=C/c2ccccc2)sc2c1CCCC2 | 0.972 |
| CCNc1oc(-c2cccc3ccccc23)nc1C#N | -0.357 |
| Cc1ccccc1N(CC(=O)NCCc1ccccc1)C(=O)c1ccc(N2CCCC2)nc1 | -0.219 |
| O=C(O)[C@H]1CCCC[C@H]1C(=O)NCCNC(=O)[C@@H]1CCCC[C@@H]1C(=O)O | -0.0826 |
| O=C(CSc1nnc(-c2ccccc2)c(-c2ccccc2)n1)Nc1ncc(Cl)cc1Cl | 0.143 |
| O=C(CCS(=O)(=O)c1ccccc1)Nc1nc2c(s1)CCCC2 | -0.0589 |
| CC(OC(=O)c1cccs1)C(=O)Nc1nc(-c2ccccc2)cs1 (stereo not given) | -0.103 |
| COc1cccc(NC(=O)CC2C(=O)NC3CCCCC3N2C(=O)c2ccc(F)cc2)c1 (stereo not given) | -0.153 |
| O=C(COc1ccccc1Cl)NCCCN1CCOCC1 | 1.3 |
| c1ccc(-c2nnc(N3CCOCC3)nc2-c2ccccc2)cc1 | -0.818 |
| O=C(COC(=O)c1cccc([N+](=O)[O-])c1)c1ccc(OCc2ccccc2)cc1 | -0.231 |
| C=CCOC(=O)C1=C(C)NC(=S)NC1/C=C/c1ccccc1 (stereo not given) | 0.0399 |

| SMILES | z-score |
| --- | --- |
| O=C(Nc1ccccc1)N(C1=NCCC1)c1ccc(OC(F)F)cc1 | 0.321 |
| Cc1ccc(NN2C(=O)C=CC2=O)cc1 | -0.674 |
| c1cn2cc(CSC3CCCCC3)nc2s1 | -0.102 |
| O=C(NC(=S)N1CCN(Cc2ccccc2)CC1)c1ccccc1 | active: 6.31 |
| O=[N+]([O-])c1ccc(CN2CCCCCC2)s1 | -0.0604 |
| O=C(NCc1ccco1)c1cnc2sccn2c1=O | -0.0632 |
| COc1ccc(NC(=O)C2(c3ccc(NC(=O)c4ccc(C)cc4)cc3)CCCC2)cc1 | -0.11 |
| Cc1cc(C)c(NC(=O)C2CCCN2CCOC(=O)c2ccccc2)c(C)c1 (stereo not given) | 0.259 |
| COc1cccc(C(=O)Cn2c(NCCO)nc3ccccc32)c1 | -0.516 |
| COc1cc(/C=C/C(=O)N(C)c2ccccc2C(=O)O)cc(OC)c1OC | -0.0676 |
| CC(C)(C)C(=O)Cn1c(NCCCO)nc2ccccc21 | -0.106 |
| COc1ccc(C(=O)NCc2ccccc2OC)cc1 | 0.71 |
| O=c1c2c(nc3c(-c4cccc(Br)c4)c[nH]n13)CCCC2 | active: 6.35 |
| O=C(COC(=O)C12CC3CC(CC(C3)C1)C2)NCc1ccco1 | -0.0397 |
| CCOC(=O)C1C(=O)CC(C)(O)C(C(=O)OCC)C1c1cc(Br)ccc1OC (stereo not given) | -0.151 |
| CCN(CC)c1ccc(C(=O)N/N=C(\C)c2ccc(OC)c(OC)c2)cc1 | 0.585 |
| COc1ccc(N2C(=O)CC(NC3CCCCNC3=O)C2=O)cc1 (stereo not given) | 0.287 |
| Cc1cc(C)c2c(-n3cccc3)nn(C)c2n1 | -0.0664 |
| CCOc1ccccc1NC(=O)CSc1nnc(-c2ccccn2)n1Cc1ccco1 | active: -3.11 |
| CCOc1ccc2nc(SC3CC(=O)N(c4cccc(OC)c4)C3=O)sc2c1 (stereo not given) | 0.642 |
| COC(=O)c1c(NC(=O)COC(=O)c2ccc(Cl)cc2[N+](=O)[O-])sc2c1CCCCC2 | -0.191 |
| COc1ccc(S(=O)(=O)Nc2cc(C)ccn2)cc1 | -0.11 |
| CN1/C(=C\C(=O)CSc2nncn2C)C(C)(C)c2ccccc21 | -0.00813 |
| COc1ccc(C2=NOC3(CC(=O)N(c4ccc(C)cc4)C3=O)C2)c(OC)c1 (stereo not given) | 0.85 |

| SMILES | z-score |
| --- | --- |
| CCN(c1ccc(NC(=O)COC(=O)c2ccc3ccccc3n2)cc1)C(C)C | -0.386 |
| CCOc1cc(/C=C2/SC(=Nc3ccccc3)N(Cc3cccnc3)C2=O)ccc1OCC#N | 0.0194 |
| COc1ccc(C(C)=O)cc1CSc1nc2cc(Cl)ccc2o1 | 0.00484 |
| C/C(=N\Nc1nc(C)cc(=O)[nH]1)C1CC1 | -0.013 |
| CC1=NN(c2ccc(C(=O)OC(C)C)cc2)C(=O)/C1=C\C=C\c1ccco1 | -0.0494 |
| COc1ccc(Cl)cc1NC(=O)CN(C1CCCCC1)S(C)(=O)=O | 0.0369 |
| COc1ccccc1N(CC(=O)NCc1ccccc1)C(=O)CCC(=O)Nc1cc(C)ccn1 | -2.26 |
| COCCn1c(CN2CC(C)CC(C)C2)nc2c1c(=O)n(C)c(=O)n2C (stereo not given) | -0.298 |
| O=C(CN1CCCc2ccccc21)N/N=C/c1ccccc1 | 0.502 |
| COCCSc1ccccc1C(=O)Nc1nnc(COC)s1 | -0.364 |
| COc1cc(/C=C2\SC(N)=NC2=O)ccc1OCC(=O)Nc1ccc(C)cc1 | -0.311 |
| CN1CCc2c(sc(N)c2C(N)=O)C1 | -0.167 |
| CC(C)(C)NC(=O)CN(C(=O)CNC(=O)c1cccs1)c1ccc2c(c1)OCCO2 | -0.126 |
| Cc1ccccc1NC(=O)CSc1nnc(Cc2cccn2C)n1-c1ccc(F)cc1 | -1.8 |
| COc1ccc(Cl)cc1C(=O)Nc1ccccc1N1CCN(C)CC1 | 1.61 |
| COc1ccc(Nc2nc(NC(C)(C)C)nc(N3CCCC3)n2)c(OC)c1 | -0.481 |
| O=C(Nc1ccc(-n2ccnc2P(=O)(O)c2ccccc2)cc1)c1ccccc1Br | -0.0467 |
| O=C(Nc1ccc(Cl)cc1)c1cnc(-c2ccccc2)nc1-c1ccccc1 | -0.78 |
| CN(C)S(=O)(=O)c1ccc(Cl)c(NC(=O)CSc2nc3c(cc2C#N)C(=O)CC(C)(C)C3)c1 | -1.06 |
| CC(=O)N(C1=C(O)c2ccccc2C(=O)C1=O)C1CCCCC1 | 0.107 |
| COc1cc(OC)c(C(=O)NC2CC(C)(C)NC(C)(C)C2)cc1OC | 0.123 |
| CCCC12CN3CCN(CC(C3)/C1=N\NC(=O)Nc1ccccc1)C2 | -0.242 |
